Assay results: the supplement of paper PMC10126150
Sequences with one replicate were seen in a single cluster, so their values are uncertain.

System: ATP
Test: switch fluorescence ratio, 500 uM ATP over buffer (Cy3 cluster intensity, sum of 5 cycles each) (fold (ratio)); higher = stronger signal-on switching upon ATP binding; sequences stand for … in TCGTCGGCAGCGTCAGATGTGTATAAGAGACAGTTTTTTTTTTTTTTTTTTTTTTTTT…TC
Conditions: aptamer strand: ATP DNA aptamer (quencher-CACCTGGGGGAGTATTGCGGAGGAAGG + anchor), 100 nM annealed; ATP concentration: 500 uM; one replicate
How it was run: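 The fluorescence ratio divides summed target-cycle Cy3 intensity by summed buffer-cycle Cy3 intensity for each cluster and is averaged per switch-domain sequence. Cy3-labelled switching-strand clusters on a modified Illumina MiSeq flow-cell were annealed to 100 nM quencher-labelled ATP aptamer, then imaged in selection buffer and again after 15 min with 500 uM ATP at 22 °C. Five such cycles were run, with NaOH stripping and re-annealing between them, and clusters outside 100-1000 RFU were excluded.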
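Also: ATP exposure 15 min at 22 °C before imaging.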

Row | Sequence | switch fluorescence ratio
1 | TTTCAAAACT | 1.03
2 | TTTCAAACGA | 1.07
3 | TTTCAACCTA | 1.05
4 | TTTCAATCAC | 1.28
5 | TTTCACCCTG | 1.05
6 | TTTCACCGGT | 1.02
7 | TTTCACGATT | 0.969
8 | TTTCACGCTG | 0.989
9 | TTTCACGTAC | 1.77
10 | TTTCACGTGA | 1.02
11 | TTTCAGACGC | 1.21
12 | TTTCAGCGGT | 0.97
13 | TTTCAGCTGC | 1.02
14 | TTTCAGGAAT | 1.41
15 | TTTCAGGGA | 0.969
16 | TTTCATAAAG | 1.02
17 | TTTCATCAAA | 1.02
18 | TTTCATCGCT | 1.1
19 | TTTCATGAGC | 1.01
20 | TTTCATGGTT | 1.01
21 | TTTCCAACTT | 1.01
22 | TTTCCAAGAG | 0.995
23 | TTTCCACACT | 1.01
24 | TTTCCAGCGG | 1.07
25 | TTTCCAGGCT | 0.897
26 | TTTCCATACC | 1.05

Row | Sequence | switch fluorescence ratio
27 | TTTCCCCGGG | 1.08
28 | TTTCCGCTGG | 1.36
29 | TTTCCTCTTG | 1.09
30 | TTTCCTTAAG | 0.989
31 | TTTCCTTGTA | 1.02
32 | TTTCGACCCA | 1.04
33 | TTTCGAGTA | 0.999
34 | TTTCGAGTCT | 0.974
35 | TTTCGCGCTG | 0.958
36 | TTTCGCTAAA | 1.03
37 | TTTCGGCAGG | 1.02
38 | TTTCGGCGGA | 0.965
39 | TTTCGGTAGC | 0.993
40 | TTTCGTTTAT | 0.977
41 | TTTCTACAAT | 1.07
42 | TTTCTAGCTA | 1.05
43 | TTTCTCGCTC | 1.08
44 | TTTCTGCAGG | 1.1
45 | TTTCTGGACA | 0.993
46 | TTTCTGTAGT | 1.05
47 | TTTCTTACAC | 1.02
48 | TTTCTTCTCG | 1
49 | TTTCTTGCAT | 1.01
50 | TTTGAAACCT | 2.67
51 | TTTGAAACT | 1.04
52 | TTTGAAAGTC | 0.972

Row | Sequence | switch fluorescence ratio
53 | TTTGAACAAA | 0.98
54 | TTTGACGCAC | 1.81
55 | TTTGACTATT | 0.982
56 | TTTGACTCA | 1.01
57 | TTTGAGACAA | 1.1
58 | TTTGAGAGGC | 0.989
59 | TTTGAGCCGC | 1.03
60 | TTTGAGCGCT | 1.02
61 | TTTGAGCTAG | 0.95
62 | TTTGAGTATG | 0.973
63 | TTTGATCCTC | 1
64 | TTTGATGCTG | 1.02
65 | TTTGATGGAG | 0.998
66 | TTTGATTTCT | 0.963
67 | TTTGATTTGA | 0.92
68 | TTTGCAGCCT | 1.02
69 | TTTGCATGGT | 0.993
70 | TTTGCGCGTG | 1
71 | TTTGCTACAT | 0.998
72 | TTTGCTCCT | 1
73 | TTTGCTTACA | 1.03
74 | TTTGGAACTT | 1.01
75 | TTTGGACGTA | 1.04
76 | TTTGGACTTA | 0.971
77 | TTTGGAGATT | 0.996
78 | TTTGGCCTGC | 1.02

Row | Sequence | switch fluorescence ratio
79 | TTTGGCTGA | 0.984
80 | TTTGGCTGCT | 0.966
81 | TTTGGGACTA | 1
82 | TTTGGGCATC | 1.01
83 | TTTGGTAGGC | 0.948
84 | TTTGTAAAT | 1.13
85 | TTTGTAATCC | 1.38
86 | TTTGTACATA | 1.03
87 | TTTGTACCTA | 1.03
88 | TTTGTATCT | 0.986
89 | TTTGTCCGTA | 1.09
90 | TTTGTCGTCT | 1.02
91 | TTTGTCTTAG | 1.01
92 | TTTGTGAGAT | 1.01
93 | TTTGTGATAT | 1.02
94 | TTTGTGTACT | 0.992
95 | TTTGTTACCT | 1.13
96 | TTTGTTAGTT | 0.965
97 | TTTGTTCATG | 0.983
98 | TTTGTTTCGC | 1.03
99 | TTTTAAATCA | 1.05
100 | TTTTAATCTA | 1.05
101 | TTTTAATTCT | 1
